# Results from the supplement of paper PMC6135742.
# Structures can show the parent of a compound that is named as a salt. ± gives the standard deviation of the averaged measurements. In all, about 2,600 compounds were measured (“total cell number (DAPI+ nuclei) relative to DMSO vehicle control”: median about -1.4, lowest 2% from about -23 on). This is one part of the list.
# Test system: jimpy (Plp1 jimpy) mouse iPSC-derived oligodendrocyte progenitor cells
# Assay: total cell number (DAPI+ nuclei) relative to DMSO vehicle control (SDs above negative control mean); higher = more surviving cells
# Conditions: 10 µM; 3 days
row,SMILES,total cell number
1,CC12CC3CC(C)(C1)CC(N)(C3)C2 [Memantine HCl],-0.545
2,CC12CC3CC(C)(C1)CC(N)(C3)C2 [Memantine hydrochloride],-2.07
3,CN1C(C(=O)Nc2ccccn2)=C(O)c2sc(Cl)cc2S1(=O)=O [Lornoxicam],-0.33
4,O=C(O)c1ccc(C=C2SC(=S)N(c3cccc(C(F)(F)F)c3)C2=O)cc1,0.711
5,COc1ccc(-c2cc(=O)c3c(OC)c(OC)c(OC)c(OC)c3o2)cc1 [Tangeretin],-5.79
6,COc1ccc(-c2ccc3cc(C(=O)O)ccc3c2)cc1C12CC3CC(CC(C3)C1)C2 [Adapalene],-4.06
7,O=C(O)c1cc2cc(F)ccc2[nH]1 [5-Fluoroindole-2-carboxylic acid],-1.42
8,CCCCc1oc2ccccc2c1C(=O)c1cc(I)c(OCCN(CC)CC)c(I)c1 [Amiodarone hydrochloride],-11.8
9,CCCCc1oc2ccccc2c1C(=O)c1cc(I)c(OCCN(CC)CC)c(I)c1 [Amiodarone HCl],-17.2
10,O=C(O)c1cccnc1 [Nicotinic Acid],-1.62
11,Cc1cccc(N(C)C(=S)Oc2ccc3ccccc3c2)c1 [Tolnaftate],-0.723
12,N[C@@H](COP(=O)(O)O)C(=O)O [O-Phospho-L-serine],-0.573
13,C=CCNC1=C2C[C@@H](C)C[C@H](OC)[C@H](O)[C@@H](C)/C=C(\C)[C@H](OC(N)=O)[C@@H](OC)/C=C\C=C(/C)C(=O)NC(=CC1=O)C2=O [17-AAG (Tanespimycin)],-25
14,"CN1CCN(c2ccc3nc(-c4c(N)c5c(F)cccc5[nH]c4=O)[nH]c3c2)CC1 [Dovitinib (TKI-258, CHIR-258)]",-25.7
15,CN1CCN(c2ccc3nc(-c4c(N)c5c(F)cccc5[nH]c4=O)[nH]c3c2)CC1 [Dovitinib (TKI-258) Dilactic Acid],-12.1
16,O=c1[nH]c(=O)n([C@H]2C[C@H](O)[C@@H](CO)O2)cc1I [Idoxuridine],-2.83
17,Cc1ccc(S(=O)(=O)OCC(=O)Nc2ccc(C(=O)O)c(O)c2)cc1,-0.179
18,C[C@H]1C[C@H]2[C@@H]3CCC4=CC(=O)C=C[C@]4(C)[C@H]3C(=O)C[C@]2(C)[C@@]1(O)C(=O)CO [Meprednisone],-1.79
19,O=C(Nc1ncc(SCCN2CCCC2)s1)[C@]1(c2ccc(S(=O)(=O)C3CC3)cc2)C[C@H]1C1CCCCC1,-14.4
20,O=C(O)CCCN1CCC(O[C@@H](c2ccc(Cl)cc2)c2ccccn2)CC1 [Bepotastine Besilate],-0.974
21,NNC(=O)c1ccncc1 [Isoniazid],-1.58
22,CN(C(=O)CCCOc1ccc2[nH]c(=O)ccc2c1)C1CCCCC1 [Cilostamide],-0.169

row,SMILES,total cell number
1,COc1ccc(Br)cc1S(=O)(=O)NC(=O)/C=C/c1ccccc1Cc1ccc2ccccc2c1,-0.819
2,CC[C@H](c1ccc(O)cc1)[C@@H](CC)c1ccc(O)cc1 [Hexestrol],-1.22
3,Cc1c(Nc2ncccc2C(=O)O)cccc1C(F)(F)F [Flunixin Meglumin],0.511
4,COc1cc(N)c(Cl)cc1C(=O)OCCN1CCCCC1,-5.05
5,N#CC1(c2ccc(NC(=O)c3cccnc3NCc3ccncc3)cc2)CCCC1 [Apatinib],-2.57
6,OC[C@@H](O)CN1CCN(c2ccccc2)CC1 [Levodropropizine],0.711
7,CCCCCC(O)CCCC(=O)O (stereo not given) [5-hydroxydecanoic acid sodium],-0.644
8,CN1CCN(C(=O)c2cc3cc(Cl)ccc3[nH]2)CC1,-2.98
9,CCCN(CC1CC1)c1nc(C)nc(Nc2c(Cl)cc(Cl)cc2Cl)c1Cl,-8.76
10,O=C1NC(c2cccc([N+](=O)[O-])c2)=CCN1c1ccccc1O [Icilin],0.524
11,Nc1ncnc2c1ncn2C1CCCC1 [9-cyclopentyladenine],-3.32
12,COc1ccc(CNc2nc(N3CCC[C@H]3CO)ncc2C(=O)NCc2ncccn2)cc1Cl [Avanafil],1.77
13,NC(=O)c1ccccc1 [Benzamide],-1.64
14,Cc1c(-c2ccc(-c3ccccc3F)cc2)nc2ccc(F)cc2c1C(=O)O [Brequinar sodium salt hydrate],-0.144
15,Nc1nc(N)c2nc(-c3cccc(O)c3)c(-c3cccc(O)c3)nc2n1,-2.12
16,Cn1cnc2c(F)c(Nc3ccc(Br)cc3Cl)c(C(=O)NOCCO)cc21 [Selumetinib (AZD6244)],-9.24
17,CN(Cc1cc(Br)cc(Br)c1N)C1CCCCC1 [Bromhexine HCl],3.21
18,C[C@H](CS)C(=O)N1CCC[C@H]1C(=O)O [Captopril],-4.67 ± 3.1
19,C[C@H](Cc1ccc(O)c(O)c1)[C@@H](C)Cc1ccc(O)c(O)c1,-8.61
20,NCCc1ccc(O)c(O)c1 [Dopamine HCl],-0.925
21,NCCc1ccc(O)c(O)c1 [Dopamine hydrochloride],-1.23
22,COc1ccccc1CN[C@H]1CCCN[C@H]1c1ccccc1,-1.93

row,SMILES,total cell number
1,NC(N)=NC(N)=Nc1ccccc1 [1-Phenylbiguanide],-1.26
2,"Nc1ncnc2c1ncn2[C@@H]1O[C@@H]2COP(=O)(O)O[C@H]2[C@H]1O [Adenosine 3',5'-cyclic monophosphate]",1.66
3,CC(C)C(=O)c1c(C(C)C)nn2ccccc12 [Ibudilast],-1.93
4,C[N+](C)(C)CC(O)CC(=O)[O-] (racemic) [DL-Carnitine HCl],2.24
5,C[N+](C)(C)C[C@H](O)CC(=O)[O-] [L-carnitine],-0.368
6,CC(C)NCC(O)COc1cccc2[nH]ccc12 (stereo not given) [Pindolol],-2.13
7,COC(=O)C(C)(N)Cc1ccc(O)cc1 (racemic) [alpha-Methyl-DL-tyrosine methyl ester hydrochloride],-2.52
8,COC(=O)[C@H]1[C@H]2C[C@H]3c4[nH]c5ccccc5c4CCN3C[C@H]2CC[C@@H]1O [Rauwolscine hydrochloride],-1.23
9,Cn1c(N2CCCCS2(=O)=O)nc(C(=O)NCc2ccc(F)cc2)c(O)c1=O,-4.11
10,CC(CN(C)C)CN1c2ccccc2CCc2ccccc21 (stereo not given) [Trimipramine maleate],-4.49
11,C=C1C(=O)O[C@H]2[C@H]1CC/C(C)=C/CC[C@@]1(C)O[C@@H]21 [Parthenolide],-10.2
12,C=C1C(=O)O[C@H]2[C@H]1CC/C(C)=C/CC[C@@]1(C)O[C@@H]21 [(-)-Parthenolide],-12.8
13,O=C(O)COc1ccc(C(=O)c2cccs2)c(Cl)c1Cl [Tienilic acid],-0.385
14,COc1ccc(CCC(=O)Nc2nc3ccc(Cl)cc3s2)cc1OC,-1.02
15,COc1ccc(CCn2nnnc2C2(c3ccc(C)cc3)CC2)cc1 [Mephetyl tetrazole],-0.201
16,CCCCOc1ccc(C(=O)CCN2CCCCC2)cc1 [Dyclonine HCl],-3.72
17,CC(C)(C)CC(C)(C)c1ccc(OCCOCC[N+](C)(C)Cc2ccccc2)cc1 [Benzethonium Chloride],-16.4
18,CN1[C@@H]2CC[C@H]1C[C@@H](OC(=O)C(O)c1ccccc1)C2 (mixture of isomers) [DL-Homatropine hydrobromide],0.0407
19,Cn1nnc2c(C(N)=O)ncn2c1=O [Temozolomide],1.12
20,O=[N+]([O-])c1cn2c(n1)OC[C@@H](OCc1ccc(OC(F)(F)F)cc1)C2,-1.36
21,Cc1ccc(C(=O)N(CCCN)[C@@H](c2oc3cc(Cl)ccc3c(=O)c2Cc2ccccc2)C(C)C)cc1,-15.1
22,CC(C)(C)NC(=O)[C@H]1CC[C@H]2[C@@H]3CC[C@H]4NC(=O)C=C[C@]4(C)[C@H]3CC[C@]12C [Finasteride],-0.502

row,SMILES,total cell number
1,Cc1ccc(C(=O)Cn2c3c(sc2=N)CCCC3)cc1 [Pifithrin-? (PFT?)],1.69
2,C=CC[N+]1([C@H]2C[C@H]3[C@@H]4CC[C@H]5C[C@H](O)[C@@H](N6CCOCC6)C[C@]5(C)[C@H]4CC[C@]3(C)[C@H]2OC(C)=O)CCCC1 [Rocuronium Bromide],0.0371
3,C=C1CC[C@H](O)C/C1=C/C=C1\CCC[C@]2(C)[C@@H]([C@H](C)/C=C/[C@H](C)C(C)C)CC[C@@H]12 [Vitamin D2],9.04
4,Nc1nc(N)c2nc(-c3ccccc3)c(N)nc2n1 [Triamterene],-2.65 ± 0.62
5,COc1cc(OC)c(NC(=O)Nc2cc(C)on2)cc1Cl,-0.876
6,N[C@H]1CONC1=O [L-Cycloserine],-1.52
7,CNC(=O)c1ccc(N2C(=S)N(c3ccc(C#N)c(C(F)(F)F)c3)C(=O)C2(C)C)cc1F [Enzalutamide (MDV3100)],10.1
8,O=c1c(O)c(-c2ccc(O)cc2)oc2cc(O)cc(O)c12 [Kaempferol],-2.62
9,N#C/C(=C(/N)Sc1ccc(N)cc1)c1ccccc1C(F)(F)F,-4.11
10,COc1cc2nc(N3CCN(C(=O)C4COc5ccccc5O4)CC3)nc(N)c2cc1OC (stereo not given) [Doxazosin mesylate],-3.83
11,COc1cc2nc(N3CCN(C(=O)C4COc5ccccc5O4)CC3)nc(N)c2cc1OC (stereo not given) [Doxazosin Mesylate],-5.25
12,O=C(c1cc(O)c(O)c([N+](=O)[O-])c1)c1ccccc1F,0.768
13,O=P(O)(O)C(O)(Cn1ccnc1)P(=O)(O)O [Zoledronic Acid],-2.71
14,O=P(O)(O)C(O)(Cn1ccnc1)P(=O)(O)O [Zoledronic acid monohydrate],-0.35
15,CC(C)(CO)[C@@H](O)C(=O)NCCC(=O)O [D-Pantothenic acid],0.13
16,"O=c1[nH]ccc2c(O)cccc12 [1,5-Isoquinolinediol]",-1.28
17,COc1cc(NC(=O)c2ccccn2)ccc1Cl,-0.24
18,Cc1cc(C(C)(C)C)cc(C)c1CC1=NCCN1 [Xylometazoline HCl],-1.28
19,Cc1cc(C(C)(C)C)cc(C)c1CC1=NCCN1 [Xylometazoline hydrochloride],-2.23
